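Tested at 5 concentrations; 48 h exposure; 96-well plates; endpoints linearly interpolated, else capped at highest concentration. Here, GI50 denotes the concentration required for 50% inhibition of growth. At the TGI there is no net growth.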
test system: NCI-H322M lung; experiment: NCI-60 cell line screen, 48 h

First: O=C(/C=C/c1ccc(Cl)cc1)c1ccc(Cl)cc1Cl
Second: CC(C)(C)OC(=O)n1cc(CNC(=S)Nc2ccccc2)c2ccccc21
The GI50 of the first is 2-fold lower: 8.23 µM for the first, 16.3 µM for the second.

NC(CO)Cc1cnc[nH]1 (stereo unspecified) and O=C(Nc1nc2ccccc2s1)OCC(F)(F)F cannot be ordered by GI50: greater than 100 µM for the first, greater than 100 µM for the second.

Going from O=C(/C=C/c1ccc(Cl)cc1)c1ccc(Cl)cc1Cl to CC(=O)OCC1OC(N2C(=O)/C(=C\c3ccc(Cl)cc3)C(N)=Nc3ccccc32)C(OC(C)=O)C(OC(C)=O)C1OC(C)=O (stereo unspecified), the TGI rises from 17.2 µM to greater than 100 µM.

Going from COc1ccc(Nc2[nH]c(C(C)=O)c(N)c2C(=S)Nc2ccccc2)cc1 to CC(C)(C)OC(=O)n1cc(CNC(=S)Nc2ccccc2)c2ccccc21, the TGI falls from greater than 100 µM to 44.2 µM.

First: CCCCN(CC)c1nc(C)nc2c1c(C)c(C)n2-c1c(C)cc(C)cc1C
Second: CCOC(=O)C1=C(C)Nc2ccccc2S1
The TGI of the first is lower: 34.1 µM for the first, greater than 100 µM for the second.

O=C1NC(c2ccc(O)cc2)C2CCC1C2 (stereo unspecified) and CC(=O)C(CN1CCCCC1)C(c1ccccc1)c1c(O)c2ccccc2oc1=O (stereo unspecified) cannot be ordered by TGI: greater than 100 µM for the first, greater than 100 µM for the second.

C=CCN(CC=C)Cn1c(=S)sc2ccccc21 and O=C(Nc1nc2ccccc2s1)OCC(F)(F)F cannot be ordered by TGI: greater than 100 µM for the first, greater than 100 µM for the second.

NC(CO)Cc1cnc[nH]1 (stereo unspecified) and CCOC(=O)C1(CC)CCCCC(=O)N1 (stereo unspecified) cannot be ordered by TGI: greater than 100 µM for the first, greater than 100 µM for the second.

Source: PubChem BioAssay (NCI)
